Data reported in PubChem BioAssay AID1259407 (Chemical Carcinogenesis Research Information System (CCRIS), 2018).
“Also recorded” adds a separate entry of the source. Certain results were filed several times, with different values. The other results are left out here. The rule behind the calls is not given here. An entry can have further records. Results that share an entry differ, and nothing given here explains why; dose, time, organism, isomer or construct need not be as stated for each record. Marks in square brackets tell the records apart. Letters count within one entry. Signs of the kind (2×) count equal records among those shown.

System: CCRIS mutagenicity, Ames/micronucleus/aberration tests
Test: CCRIS mutagenicity studies
[1] = Test System: AMES SALMONELLA TYPHIMURIUM, Strain/Indicator: TA98, Metabolic Activation: NONE, Method: PREINCUBATION
[2] = Test System: AMES SALMONELLA TYPHIMURIUM, Strain/Indicator: TA98, Metabolic Activation: NONE, Method: STANDARD PLATE
[3] = Test System: AMES SALMONELLA TYPHIMURIUM, Strain/Indicator: TA100, Metabolic Activation: NONE, Method: STANDARD PLATE
[4] = Test System: MOUSE LYMPHOMA, Strain/Indicator: L5178Y (TK+/TK-), Metabolic Activation: NONE, Method: SUSPENSION/PLATE
[5] = End Point: IN VITRO CHROMOSOMAL ABERRATIONS, Test System: CHL CELLS, Metabolic Activation: NONE
[6] = Test System: AMES SALMONELLA TYPHIMURIUM, Strain/Indicator: TA100, Metabolic Activation: RAT, LIVER, S-9, AROCLOR 1254, Method: STANDARD PLATE
[7] = Test System: AMES SALMONELLA TYPHIMURIUM, Strain/Indicator: TA98, Metabolic Activation: RAT, LIVER, S-9, AROCLOR 1254, Method: STANDARD PLATE
[8] = End Point: IN VITRO CHROMOSOMAL ABERRATIONS, Test System: CHO CELLS, Metabolic Activation: NONE
[9] = End Point: IN VITRO CHROMOSOMAL ABERRATIONS, Test System: CHO CELLS, Metabolic Activation: RAT, LIVER, S-9, AROCLOR 1254
[10] = Test System: AMES SALMONELLA TYPHIMURIUM, Strain/Indicator: TA100, Metabolic Activation: NONE, Method: PREINCUBATION
[11] = End Point: IN VITRO MICRONUCLEUS, Test System: V79 CELLS, Metabolic Activation: NONE
[12] = End Point: In vitro chromosomal aberrations, Test System: Chinese hamster lung (CHL/IU) cells, Metabolic Activation: None

For Cn1c(N)nc2c3cccnc3ccc21, the mutagenic call (Test System: AMES SALMONELLA TYPHIMURIUM, Strain/Indicator: TA98, Metabolic Activation: RAT, LIVER, S-9, Method: PREINCUBATION) was “inactive; negative [study A] and active; positive [study B]”.

In the case of O=[N+]([O-])c1ccccc1CCl, the mutagenic call [1] is reported as “active; positive [study A] and inactive; negative [study B] and inactive; negative [study C]”.

In the case of c1ccoc1, the mutagenic call [2] is reported as “inactive; negative [study A] and active; positive [study B]”, the mutagenic call [3] is reported as “active; positive [study A] and inactive; negative [study B]” and the mutagenic call [4] is reported as “inactive; negative and active; positive”.

For C/C=C/C=O, the mutagenic call [5] was “active; positive (structural and ploidy changes); also recorded: active; positive (structural changes)” and the mutagenic call (Test System: AMES SALMONELLA TYPHIMURIUM, Strain/Indicator: TA1537, Metabolic Activation: NONE, Method: PREINCUBATION) was “inactive; negative and active; positive”.

With Nc1c(Cl)cc([N+](=O)[O-])cc1[N+](=O)[O-] the mutagenic call [5] was “inactive; negative; also recorded: inactive; negative; authors report equivocal results for ploidy changes at 0.025 and 0.05; also recorded: inactive; negative; authors report equivocal results for ploidy changes at 0.1 mg/ml; prec”.

For CC(Br)CBr (stereo not given), the mutagenic call (Test System: AMES SALMONELLA TYPHIMURIUM, Strain/Indicator: TA1535, Metabolic Activation: RAT LIVER S-9, PHENOBARBITAL AND BETA-NAPHTHOFLAVONE, Method: PREINCUBATION) was “inactive; negative and active; positive”.

With CC(C)(S)[C@@H](N)C(=O)O the mutagenic call (Test System: CHINESE HAMSTER V-79, Strain/Indicator: V-79/6-THIOGUANINE, Metabolic Activation: RAT, KIDNEY, S-9, Method: STANDARD PLATE) was “inactive; negative and active; positive”.

For CC(N)c1ccccc1.CC(N)c1ccccc1.[Cl][Pt][Cl] (stereo not given), the mutagenic call (Test System: AMES SALMONELLA TYPHIMURIUM, Strain/Indicator: TA92, Metabolic Activation: NONE, Method: STANDARD PLATE) was “active; positive and inactive; negative”.

With c1cscn1 the mutagenic call [2] was “active; positive [study A] and inactive; negative [study B]”, the mutagenic call [3] was “active; positive [study A] and inactive; negative [study B]” and the mutagenic call [6] was “active; positive [study A] and inactive; negative [study B]”.

With c1ccc(NNc2ccccc2)cc1 the mutagenic call [7] was “inactive; negative (2×) and active; positive” and the mutagenic call (Test System: AMES SALMONELLA TYPHIMURIUM, Strain/Indicator: TA1535, Metabolic Activation: MOUSE, LIVER, S-9, AROCLOR 1254, Method: STANDARD PLATE) was “inactive; negative (2×) and active; positive”.

For C=C(C)CCl, the mutagenic call [5] was “inactive; negative; authors report equivocal results for ploidy changes at highest dose; also recorded: active; positive; authors report equivocal results for ploidy changes at highest dose fo”, the mutagenic call [8] was “active; positive; weak response and inactive; negative and active; positive” and the mutagenic call [9] was “inactive; negative; also recorded: active; positive; weak response; all aberrations observed as pulverized chromosomes”.

In the case of CN(C)c1ccc(Cc2ccc(N(C)C)cc2)cc1, the mutagenic call (Test System: AMES SALMONELLA TYPHIMURIUM, Strain/Indicator: TA98, Metabolic Activation: MOUSE, LIVER, S-9, AROCLOR 1254, Method: STANDARD PLATE) is reported as “inactive; negative (2×) and active; positive” and the mutagenic call [4] is reported as “inactive; negative and active; positive”.

In the case of Cc1c(N(C)CS(=O)(=O)O)c(=O)n(-c2ccccc2)n1C, the mutagenic call [1] is reported as “active; positive [study A] and inactive; negative [study B]” and the mutagenic call [10] is reported as “active; positive [study A] and inactive; negative [study B]”.

In the case of O[C@@H]1C=Cc2c(ccc3c2ccc2ccccc23)[C@H]1O, the mutagenic call [7] is reported as “inactive; negative [study A] and active; positive [study B]”.

CC(=O)OC/C=C(C)/C=C/C=C(C)/C=C/C1=C(C)CCCC1(C)C was tested, and the mutagenic call [11] was “inactive; negative and active; positive”.

With O=C(c1ccccc1)C(O)c1ccccc1 (stereo not given) the mutagenic call [9] was “inactive; negative; precipitation occurred at 500, 1000, 1500, and 2000 ug/ml; also recorded: inactive; negative; precipitation occurred at all doses” and the mutagenic call (Test System: MOUSE LYMPHOMA, Strain/Indicator: L5178Y (TK+/TK-), Metabolic Activation: RAT, LIVER, S-9, AROCLOR 1254, Method: SUSPENSION/PLATE) was “inactive; negative [study A] and active; positive [study B]”.

In the case of O=NN1CCSC1, the mutagenic call [10] is reported as “inactive; negative [study A] and active; positive [study A] and active; positive [study B]”.

For Cc1c(N=C=O)cccc1N=C=O, the mutagenic call [5] was “active; positive (structural and ploidy changes) (2×); also recorded: inactive; negative; authors report equivocal results for ploidy changes at highest dose”, the mutagenic call [8] was “inactive; negative; precipitation occurred at 500 and 1000 ug/ml; also recorded: active; positive; weak response; precipitation occurred at all doses; also recorded: active; positive; precipitation occurred at 600, 800 and 1000 ug/ml” and the mutagenic call (Test System: AMES SALMONELLA TYPHIMURIUM, Strain/Indicator: TA98, Metabolic Activation: RAT LIVER S-9, PHENOBARBITAL AND BETA-NAPHTHOFLAVONE, Method: PREINCUBATION) was “inactive; negative and active; positive”. For the same compound, the mutagenic call (Test System: AMES SALMONELLA TYPHIMURIUM, Strain/Indicator: TA100, Metabolic Activation: RAT LIVER S-9, PHENOBARBITAL AND BETA-NAPHTHOFLAVONE, Method: PREINCUBATION) was “inactive; negative and active; positive”.

With CCCCB(CCCC)CCCC the mutagenic call [2] was “active; positive and inactive; negative”, the mutagenic call [3] was “inactive; negative and active; positive” and the mutagenic call [6] was “inactive; negative and active; positive”.

In the case of CC(C)(Oc1ccc(C2CC2(Cl)Cl)cc1)C(=O)O (stereo not given), the mutagenic call (End Point: IN VITRO CHROMOSOMAL ABERRATIONS, Test System: RAT HEPATOCYTES, Metabolic Activation: NONE) is reported as “active; positive; dose dependent effect and active; positive” and the mutagenic call (End Point: IN VITRO MICRONUCLEUS, Test System: RAT HEPATOCYTES, Metabolic Activation: NONE) is reported as “active; positive; significant at top dose only; also recorded: active; positive”.

For O=c1[nH]cc(F)c(=O)[nH]1, the mutagenic call [11] was “inactive; negative and active; positive (2×)”.

With Cc1cc(-c2cc(C)c(N)c(C)c2)cc(C)c1N the mutagenic call [4] was “active; positive (2×) and inactive; negative”.

With Oc1ccc(O)cc1 the mutagenic call (End Point: IN VITRO MICRONUCLEUS, Test System: CHINESE HAMSTER V79 CELLS, Metabolic Activation: NONE) was “inactive; negative; also recorded: active; positive; also recorded: inactive; negative; authors report equivocal results” and the mutagenic call [12] was “active; positive (structural changes and ploidy).toxic at 0.010 mg/ml; also recorded: active; positive (structural changes and ploidy). weak ploidy response; also recorded: active; positive (structural changes)”.

With Nc1ccccc1C(=O)OC/C=C/c1ccccc1 the mutagenic call (Test System: E. COLI, Strain/Indicator: WP2 UVRA, Metabolic Activation: HAMSTER, LIVER, S-9, Method: STANDARD PLATE) was “inactive; negative and active; positive (2×)”, the mutagenic call (Test System: E. COLI, Strain/Indicator: WP2 UVRA, Metabolic Activation: MOUSE, LIVER, S-9, AROCLOR 1254, Method: STANDARD PLATE) was “inactive; negative and active; positive” and the mutagenic call (Test System: E. COLI, Strain/Indicator: WP2 UVRA, Metabolic Activation: MOUSE, LIVER, S-9, Method: STANDARD PLATE) was “inactive; negative and active; positive (2×)”. The mutagenic call (Test System: E. COLI, Strain/Indicator: WP2 UVRA, Metabolic Activation: RAT, LIVER, S-9, AROCLOR 1254, Method: STANDARD PLATE) was “inactive; negative and active; positive” and the mutagenic call (Test System: E. COLI, Strain/Indicator: WP2 UVRA, Metabolic Activation: RAT, LIVER, S-9, Method: STANDARD PLATE) was “inactive; negative and active; positive”.

In the case of O=C(O)/C(Cl)=C(/C(=O)O)C(Cl)Cl, the mutagenic call [3] is reported as “active; positive [study A] and inactive; negative [study B]”.

For CCCSP(=O)(OCC)SCCC, the mutagenic call (End Point: In vitro chromosomal aberrations, Test System: Chinese hamster ovary (CHO) cells, Metabolic Activation: Rat, Liver, S-9) was “active; positive (all doses) and active; positive (high dose only)”.

For C=CCO, the mutagenic call [12] was “inactive; negative. weak ploidy effects showed no dose response; also recorded: inactive; negative. weak structural changes response not dose related; also recorded: inactive; negative”.

For C, the mutagenic call (End Point: In vitro chromosomal aberrations, Test System: Chinese hamster V79 lung fibroblast cells, Metabolic Activation: None) was “inactive; negative. positive response at 10 ug/ml was considered not relevant by authors b; also recorded: inactive; negative. material tested was baytubes, multi-walled carbon-nanotubes”.
